# Test results: PubChem BioAssay AID463173 (ICCB-Longwood Screening Facility, Harvard Medical School, 2010)
# In all, about 52,000 compounds went through this assay and about 1,700 (3.3%) were called active. No stated cut-off is given here; in the data, active means survival mostly below about 52% (no sharp cut-off); inactive means mostly above about 56%. The list shows a part of the results.
# Tested on: Wild type
# Test: S. aureus survival, RN4220 and DeltatarO strains – OD600, teichoic acid synthesis inhibitors, primary screen (AID 463173)
# Conditions: S. aureus RN4220 wild type/DeltatarO growth, OD600, 18 h, active compounds read low, screened at 18.75 µg/mL (by protocol)
row,Compound,survival
1,Cc1cc(N2CCN(C)CC2)nc2ccc(NC(=O)Nc3ccccc3Br)cc12,inactive: 72%
2,CCOc1ccc(S(=O)(=O)N(CC(=O)Nc2cccnc2)c2ccccc2)cc1,inactive: 125%
3,COc1ccc(CCNC(=O)c2ccc3c(c2)N(Cc2ccc(C)cc2)CCS3)cc1OC,inactive: 125%
4,COCCNC(=S)N1CCN(c2ccc(S(=O)(=O)N3CCCC3)cc2)CC1,inactive: 99%
5,CC(C)N(C(=O)CSc1nnnn1C1CCCC1)C(C)C,inactive: 100%
6,CC1=C(C(N)=O)C(c2ccc(C(C)C)cc2)n2nc(SCc3ccccc3)nc2N1 (stereo not drawn),inactive: 82%
7,CCn1c(=NC(=O)c2ccc(S(=O)(=O)N3CCCCC3)cc2)sc2cccc(OC)c21,inactive: 68%
8,CCc1nn2c(-c3ccccc3OC)ccnc2c1-c1ccc(F)cc1,active: -11%
9,CCOC(=O)c1cccc(NC(=O)CC(c2cc(OC)c(OC)c(OC)c2)N2Cc3ccccc3C2=O)c1 (stereo not drawn),inactive: 68%
10,COc1ccc(CCNc2nc(-c3ccc(C)cc3)cc(C(F)F)n2)cc1OC,inactive: 100%
11,Cc1cccc(NC(=O)c2oc3c(c2C)-c2[nH]ncc2CC3)c1C,inactive: 88%
12,CCOC(=O)C1CCN(c2c(C(=O)c3ccc(OCC)cc3)cnc3ccc(OC)cc23)CC1,active: 0%
13,Oc1c(C(c2ccccc2F)N2CCOCC2)sc2nc(-c3ccco3)nn12 (stereo not drawn),inactive: 73%
14,COC(=O)c1ccc(NC(=O)CCc2c(C)nc3c(c(C)nn3-c3ccc(C)cc3)c2C)cc1,inactive: 76%
15,CC(NC(=O)CSc1n[nH]c(-c2ccccc2Cl)n1)c1nc2ccccc2n1C (stereo not drawn),inactive: 128%
16,Cc1c(Cl)cccc1NC(=O)CC(c1cccs1)N1Cc2ccccc2C1=O (stereo not drawn),active: 0%
17,CCN(c1ccccc1)S(=O)(=O)c1ccc2[nH]cc(C(=O)NC3CCCCC3)c(=O)c2c1,inactive: 105%
18,Cc1nc2c(C(=O)NCc3ccccc3Cl)c[nH]n2c(=O)c1Cc1cccc(Cl)c1,active: -15%
19,COc1c(C)cc(S(=O)(=O)Nc2cccc(-c3ccc(N4CCOCC4)nn3)c2)c(C)c1C,inactive: 81%
20,CCOc1ccc(NC(=O)CN2CCN(Cc3ccccc3)S2(=O)=O)cc1,inactive: 77%
21,Cc1cc(=O)[nH]c2nnc(SCc3ccc(Cl)c(Cl)c3)n12,inactive: 113%
22,COc1cccc(NC(=O)CSc2cc(=O)n(C)c3ccc(Cl)cc23)c1,inactive: 80%

row,Compound,survival
1,CCCCN(C)CCCNC(=O)CN1C(=O)COc2ccc(S(=O)(=O)N3CCC(C)CC3)cc21,inactive: 77%
2,CCOC(=O)N1CCc2c(sc(NCc3sccc3C)c2C(=O)Nc2cc(OC)ccc2OC)C1,inactive: 65%
3,COc1ccc(-c2cc(C(F)(F)F)nc(SCC(=O)NN3CCN(C)CC3)n2)cc1,inactive: 101%
4,CCOc1ccccc1-n1c(C)nc2cc(C(=O)O)ccc21,inactive: 81%
5,CCCCNC(=O)C1CCN(C(=O)N2CC(C)Oc3ccc(Cl)cc32)CC1 (stereo not drawn),inactive: 83%
6,COc1ccc(NC(=O)c2c(C(=O)Nc3ccccc3)sc3nc(C)cc(=O)n23)cc1,inactive: 93%
7,CCOc1ccccc1NC(=O)Cc1coc2c(C)c(C)ccc12,inactive: 114%
8,CCOc1ccccc1NC(=O)CN1C(=O)COc2ccc(S(=O)(=O)N3CCCCCC3)cc21,inactive: 94%
9,Cc1cccc(C(=O)N2CCc3cc(CNC(=O)c4ccnn4C)ccc32)c1,inactive: 90%
10,Cc1ccc(CCNC(=O)C(CC(C)C)NS(=O)(=O)c2ccc3c(c2)oc(=O)n3C)cc1 (stereo not drawn),inactive: 79%
11,N#C/C(=C\c1ccc(F)cc1)C(=O)NCC1CCCO1 (stereo not drawn),inactive: 76%
12,Cn1cnc(S(=O)(=O)N2CCCC(C(=O)NCc3ccccc3Cl)C2)c1 (stereo not drawn),inactive: 124%
13,COc1cccc(NC(=O)CSc2nc3ccc(NC(=O)c4ccco4)cc3s2)c1,inactive: 90%
14,CCc1nn(CC(=O)NCCCOC)c(=O)c2cc3occc3n12,inactive: 122%
15,O=C(CCCn1c(=O)[nH]c2ccccc2c1=O)NCc1ccccc1Cl,inactive: 124%
16,Cc1ccc(-c2nnc(Nc3ccc(Br)cc3)c3ccccc23)cc1S(=O)(=O)N1CCCCC1,inactive: 89%
17,CCCN(CCC)CCCNC(=O)Cn1cnc2onc(-c3ccc(F)cc3)c2c1=O,inactive: 73%
18,CCOc1ccc(C(=O)N2CCN(c3ccccc3)CC2)cc1,inactive: 100%
19,O=C(Cn1cnc2c(nc3n2CCCCC3)c1=O)Nc1ccc(F)cc1,inactive: 91%
20,N=c1nc(N)nc2n1NC(c1ccc(F)cc1)=CS2,inactive: 108%
21,CN(C(=O)c1nc(-c2cccc(F)c2)n2c1CCCCC2)c1ccccc1F,inactive: 114%
22,Cc1cc(C)c2c(-n3cccc3)c(C(=O)NCCc3ccc(Cl)cc3)sc2n1,inactive: 118%

row,Compound,survival
1,O=C(CN1C(=O)C(c2ccc(F)cc2)=NC12CCCCCC2)Nc1ccc(F)c(Cl)c1,inactive: 76%
2,CC(=O)Nc1ccc(S(=O)(=O)Nc2cc(C)nc(C)n2)cc1,inactive: 82%
3,COc1ccccc1NC(=O)Cn1c(=O)n(Cc2ccco2)c(=O)c2oc3ccccc3c21,inactive: 78%
4,CCC(=O)NC1CC(=O)N(c2ccc3c(c2)OCCO3)C1 (stereo not drawn),inactive: 84%
5,Cc1ccc2c(=O)cc(C(=O)Nc3c(C)n(C)n(-c4ccccc4)c3=O)oc2c1C,inactive: 86%
6,COC(=O)C(C)Sc1nnc2cc(C)c3cc(C)cc(C)c3n12 (stereo not drawn),inactive: 105%
7,COc1cc(-c2cc(OC)c3c(C)oc(C)c3c(=O)c2)ccc1OC(=O)c1ccccc1C,inactive: 73%
8,COc1cc(C2c3c(-c4ccccc4O)n[nH]c3C(=O)N2Cc2ccncc2)ccc1O (stereo not drawn),inactive: 97%
9,CCCOc1ccc(NC(=O)CC2C(=O)N(c3ccccc3)C(=O)N2CCC(C)C)cc1 (stereo not drawn),inactive: 76%
10,CCc1ccc(NC(=O)C2CCN(c3cc(C)nc4c(-c5ccc(Cl)cc5)c(C)nn34)CC2)cc1,inactive: 77%
11,Cc1ccccc1NC(=O)c1ccccc1NC(=O)c1ccccc1Cl,inactive: 79%
12,COc1cccc(CNC(=O)CC(c2ccc(F)cc2)N2Cc3ccccc3C2=O)c1 (stereo not drawn),inactive: 82%
13,CCc1ccc(NC(=O)CSc2ccc3nnc(CCNS(=O)(=O)c4ccc(OC)cc4)n3n2)cc1,inactive: 92%
14,Cc1cc(OCCCSc2nc(-c3ccc(C(C)(C)C)cc3)nc3cc(=O)[nH]n23)ccc1Cl,inactive: 70%
15,CC(C)c1ccc(NC(=O)CCCc2nc(-c3ccc(Cl)cc3)no2)cc1,inactive: 85%
16,COc1cc(Cl)c(NC(=O)C2CCN(S(=O)(=O)c3c(C)noc3/C=C/c3ccccc3F)CC2)c(OC)c1,inactive: 68%
17,CC1CCCC(C)N1C(=O)c1ccccc1N (stereo not drawn),inactive: 108%
18,Cc1nc2ccc(S(=O)(=O)CCC(=O)Nc3ccc(F)cc3C)cc2s1,inactive: 79%
19,CNS(=O)(=O)c1cn(CC(=O)Nc2ccc(C)cc2C)cc1S(=O)(=O)NC,inactive: 121%
20,Cc1ccc(C2=Nc3ccccc3NC(c3ccncc3)=N2)cc1,inactive: 87%
21,CCOc1ccc(-c2nc3c(C#N)c[nH]n3c2NC2CCCC2)cc1,inactive: 78%
22,Cc1ccc(-c2cn3c(n2)sc2cc(C(=O)NCCCc4ccccc4)ccc23)cc1,inactive: 75%

row,Compound,survival
1,COc1ccc(NS(=O)(=O)c2ccc(NC(=O)N3CCCC3)cc2)cc1,inactive: 128%
2,CCOC(=O)c1cc(-c2ccc(C)cc2)nn1Cc1ccccc1,active: 0%
3,O=C1OC(c2ccccc2)=N/C1=C\C=C\c1ccco1,inactive: 110%
4,CCCC1=C(C(=O)OC)C(c2ccccc2)n2c(nc3ccccc32)N1 (stereo not drawn),inactive: 120%
5,CCc1ccccc1NC(=O)C1CCCN(S(=O)(=O)c2cccc3nsnc23)C1 (stereo not drawn),inactive: 76%
6,COc1ccc(CCNC(=O)CCc2c(C)nc3c(c(C)nn3-c3ccc(C)cc3)c2C)c(OC)c1,inactive: 124%
7,CC(C)N(C(=O)CSc1nc2ccccc2n1CC(=O)N1C(C)CCCC1C)C(C)C (stereo not drawn),inactive: 109%
8,COc1ccc(Nc2cc(C)nc(-n3nc(C)cc3C)n2)cc1Cl,inactive: 55%
9,Cc1ccc(-n2c3c(c(=O)[nH]c2=O)C(NC(=O)c2ccccc2F)(C(F)(F)F)C(=O)N3)cc1C (stereo not drawn),inactive: 73%
10,COc1ccc(-c2cc(C(=O)Nc3c(Cl)cccc3Cl)no2)cc1OC,inactive: 79%
11,Cc1nc2c(C(=O)Nc3ccc(N4CCC(O)CC4)cc3)snc2c(=O)[nH]1,inactive: 120%
12,O=C(CN(C(=O)c1csnn1)c1cccc(F)c1)NC1CCCC1,inactive: 104%
13,CCc1ccc(N2CCn3c2nc2c3c(=O)n(Cc3ccc(F)cc3)c(=O)n2C)cc1,inactive: 82%
14,COc1ccc2c(c1)c(=O)c(S(=O)(=O)c1ccc(C)c(C)c1)cn2CC(=O)Nc1ccccc1,inactive: 84%
15,CCN(CCCNC(=O)c1cc2c(=O)n(CC)c3ccccc3c2s1)c1cccc(C)c1,inactive: 71%
16,Cc1ccccc1-c1nc(CS(=O)(=O)CC(=O)NC(C)c2ccccc2)c(C)o1 (stereo not drawn),inactive: 173%
17,COc1cc(-c2noc(C3CC(=O)N(c4ccc5c(c4)OCCO5)C3)n2)cc(OC)c1OC (stereo not drawn),inactive: 75%
18,O=C(Nc1cc(F)ccc1F)C1COc2ccccc2C1 (stereo not drawn),inactive: 69%
19,COc1ccc(Cl)cc1NC(=O)CN(c1cc(C)cc(C)c1)S(=O)(=O)c1c(C)n[nH]c1C,inactive: 18%
20,CCc1ccc(NC(=O)c2cc3c(=O)n(Cc4cccs4)ccc3nc2C)cc1,inactive: 121%
21,CC(C)N(C(=O)CSc1nc2ccccc2c(=O)[nH]1)C(C)C,inactive: 104%
22,Cc1ccc(S(=O)(=O)c2nc(-c3ccccc3)oc2N2CCN(c3ccccc3)CC2)cc1,inactive: 86%
